Results as given in PubChem BioAssay AID1745853 (National Center for Advancing Translational Sciences (NCATS), 2022).
Where “and” joins values, the source holds several entries; their conditions need not be identical. Identical values can stand only once. This is one part of the list. Further columns of the screen follow, without active or inactive calls.

What was measured:
Experiment in all cases: Primary Screen for Target Class Profiling of Small Molecule Inhibitors of Methyltransferases
[1] = biological target: Glycine N-methyltransferase (Homo sapiens) (UniProt Q14749); details: purified enzyme, MTase-Glo SAH luminescence; measured here: GNMT inhibition; at 40 µM; stronger effect = lower value
Outline: (§1)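 Each enzyme was assayed with SAM and its substrate. SAH formation detected by MTase-Glo luminescence; single-point 40 uM screen[…].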

[2] = biological target: Guanidinoacetate N-methyltransferase (Homo sapiens) (UniProt Q14353); details: purified enzyme, MTase-Glo SAH luminescence; measured here: GAMT inhibition; at 40 µM; stronger effect = lower value
Outline: as §1

[3] = biological target: Histamine N-methyltransferase (Homo sapiens) (UniProt P50135); details: purified enzyme, MTase-Glo SAH luminescence; measured here: HNMT inhibition; at 40 µM; stronger effect = lower value
Outline: as §1

[4] = biological target: Nicotinamide N-methyltransferase (Homo sapiens) (UniProt P40261); details: purified enzyme, MTase-Glo SAH luminescence; measured here: NNMT inhibition; at 40 µM; stronger effect = lower value
Outline: as §1

[5] = biological target: Phenylethanolamine N-methyltransferase (Homo sapiens) (UniProt P11086); details: purified enzyme, MTase-Glo SAH luminescence; measured here: PNMT inhibition; at 40 µM; stronger effect = lower value
Outline: as §1
% is set by controls: 0 for no effect and ±100 for the full control effect.

| SMILES | activity change, negative = inhibition [1] [%] | activity change, negative = inhibition [2] | activity change, negative = inhibition [3] [%] | activity change, negative = inhibition [4] | activity change, negative = inhibition [5] |
| --- | --- | --- | --- | --- | --- |
| OCc1ccc(O[C@@H]2O[C@H](CO)[C@@H](O)[C@H](O)[C@H]2O)cc1 | -1.51 | -6.99% | 3.3 | -15.5% | -8.31% |
| Fc1cccc(CN2CCO[C@@H](COc3ccccn3)[C@@H]2c2ccccc2)c1 | -5.89 | -6.8% | -0.165 | -12.2% | -7.48% |
| CC1CCC(NC(=O)C2(C)Cn3c(ccc3-c3ccco3)C(=O)N2Cc2ccc(Cl)cc2)CC1 (stereo not given) | 4.65 | 0% | 8.95 | 7.06% | -4.52% |
| Cc1ccnn1CCC(=O)N[C@@H]1COCC[C@H]1Oc1ccc(C(N)=O)cc1 | -1.23 | 0.516% | 1.78 | -0.206% | 4.63% |
| CC(C)OCCCNC(=O)CCc1nnc2n(CCc3ccccc3)c(=O)c3ccccc3n12 | -8.56 | 0% | -0.902 | 6.42% | -1.18% |
| O=C(NC(NC(=S)Nc1ccc(F)c([N+](=O)[O-])c1)C(Cl)(Cl)Cl)C(c1ccccc1)c1ccccc1 (stereo not given) | -5.85 | -13.6% | 7.65 | -19% | -2.98% |
| Cc1ccc(NS(=O)(=O)c2ccc3c(c2)n(C)c(=O)n3C)cc1C | -5.16 | 0.349% | -3.07 | -7.23% | -2.65% |
| CN(C)c1cccc(Oc2cnc(Nc3cccc(O)c3)nc2)c1 | 0.434 | 6.18% | 10.7 | -14.8% | 4.92% |
| CCC(CCO[C@@H]1O[C@H](CO[C@H]2OC[C@](O)(CO)[C@H]2O)[C@@H](O)[C@H](O)[C@H]1O)C(C)(C)O (stereo not given in full) | 6.89 | 8.88% | 3.33 | -4.87% | 6.28% |
| CCOC(=O)N1CCN(C(C(=O)O)c2ccc(OC)nc2OC)CC1 (stereo not given) | -2.09 | -4.35% | -0.754 | -5.54% | -9.86% |
| COc1cccc(NS(=O)(=O)c2cc3[nH]c(=O)[nH]c3cc2C)c1 | 6.65 | 0.229% | 1.21 | -4.33% | -1.37% |
| CC1CCC(NC(=O)C2(C)Cn3c(cc4sccc43)C(=O)N2CCc2ccc(Cl)cc2)CC1 (stereo not given) | 6.4 | -24.6% | 8.59 | 5.23% | 0.369% |
| O=[S+]1([O-])NC2(CCN(Cc3ccc(F)cc3)CC2)CNc2ccccc21 | -2.2 | -1.69% | -19 | -5.18% | -7.37% |
| CC1CC=C2C1CC1(O)C(=O)CC2(C)C1(C)CO (stereo not given) | -0.109 | -2.76% | -1.34 | -15.9% | 3.87% |
| COCCN1C(=O)c2nc3ccccc3n2CC1(C)C(=O)NC1CCCCCC1 (stereo not given) | 0.966 | 3.18% | 0.232 | -0.56% | 0.283% |
| COc1ccc(OC)c2c1cc1n2CC(C)(C(=O)NC2CCCC2)N(CCc2ccccc2)C1=O (stereo not given) | -6.59 | 1.07% | 5 | 6.88% | -0.073% |
| CCOc1ccc(NS(=O)(=O)c2cc3c(cc2C)n(C)c(=O)n3C)cc1 | -4.31 | 3.32% | -9.81 | -13% | -8.82% |
| C=CCn1c(=O)c2ccc(C(=O)NCC(C)C)cc2n2c(=O)n(CC(=O)Nc3ccc(C)cc3)nc12 | 1.48 | 2.69% | -0.729 | -3.89% | -1.74% |
| CC1CCN(S(=O)(=O)c2ccc3c(ccn3CCC(=O)NCCc3ccccc3Cl)c2)CC1 | -0.434 | 5% | 2.32 | -4.32% | -1.22% |
| CC(C)(C)c1cc2n(n1)CC(C)(C(=O)NCc1ccccc1)N(c1ccc(F)cc1)C2=O (stereo not given) | 5.49 | 0% | 4.68 | 4.03% | 0.654% |
| CS(=O)(=O)NCCc1ccc(CC2CCN(C(=O)c3cnccn3)CC2)cc1 | -0.753 | -1.31% | 0.605 | 0.284% | 3.1% |
| Cc1ccc(Nc2ccn3c(=O)n(CC(=O)Nc4ccc(F)c(F)c4)nc3n2)cc1 | 4.62 | 0% | -1.47 | -4.17% | 0.315% |
| Cn1cc(C2=C(c3ccc(Cl)cc3Cl)C(=O)NC2=O)c2ccccc21 | -12.4 | -19% and -2.91% | -8.52 | -33.7% and -18% | -7.78% and -8.18% |
| O=C(CCn1ccc2cc(S(=O)(=O)N3CCCCC3)ccc21)NCc1ccccc1F | 5.46 | 1.55% | 6.45 | -3.6% | 0.964% |
| CC#C[C@@H](CC(=O)O)c1ccc(OCc2ccc(CN3CCC4(C=Cc5ccccc54)CC3)s2)cc1 | -9.19 | 10.4% | 5.06 | -35.5% | -9.1% |
| COc1ccccc1CNC(=O)CCc1nnc2n(CCCOC(C)C)c(=O)c3ccccc3n12 | -5.03 | -5.14% | 9.39 | 7.74% | -4.33% |
| CCOC(=O)c1cc2n(n1)CC(C)(C(=O)NC1CCCC1)N(Cc1ccc(OC(C)C)cc1)C2=O (stereo not given) | -1.9 | 0.968% | -0.239 | -7.66% | -2% |
| Cc1ccc(C(=O)Nc2ccc(S(=O)(=O)O)c3cc(S(=O)(=O)O)cc(S(=O)(=O)O)c23)cc1NC(=O)c1cccc(NC(=O)Nc2cccc(C(=O)Nc3cc(C(=O)Nc4ccc(S(=O)(=O)O)c5cc(S(=O)(=O)O)cc(S(=O)(=O)O)c45)ccc3C)c2)c1 | -61.1 | -5.86% | -1.89 | -14.3% | -12.6% |
